Substitutions are numbered along the chain they refer to. Results are given in words; binding and its absence hold for the method and conditions named. Some entries that bind do so weakly or less than the wild type. For part of these data: Where a sequence is shown, tags or fusion partners need not be part of it.
Key:
[1] = biological target: T1, purified full length FLAG-GFP-tagged KDM2A (WT) (human) (UniProt Q9Y2K7); assay: pull-down; as a6 but nucleosomes with CpG-methylated 601-DNA (M.SssI), which does not bind KDM2A; 2 μg purified full length FLAG-GFP-KDM2A (WT or V801A/L803A) and 2 μg HP1α; both purified
T1 sequence: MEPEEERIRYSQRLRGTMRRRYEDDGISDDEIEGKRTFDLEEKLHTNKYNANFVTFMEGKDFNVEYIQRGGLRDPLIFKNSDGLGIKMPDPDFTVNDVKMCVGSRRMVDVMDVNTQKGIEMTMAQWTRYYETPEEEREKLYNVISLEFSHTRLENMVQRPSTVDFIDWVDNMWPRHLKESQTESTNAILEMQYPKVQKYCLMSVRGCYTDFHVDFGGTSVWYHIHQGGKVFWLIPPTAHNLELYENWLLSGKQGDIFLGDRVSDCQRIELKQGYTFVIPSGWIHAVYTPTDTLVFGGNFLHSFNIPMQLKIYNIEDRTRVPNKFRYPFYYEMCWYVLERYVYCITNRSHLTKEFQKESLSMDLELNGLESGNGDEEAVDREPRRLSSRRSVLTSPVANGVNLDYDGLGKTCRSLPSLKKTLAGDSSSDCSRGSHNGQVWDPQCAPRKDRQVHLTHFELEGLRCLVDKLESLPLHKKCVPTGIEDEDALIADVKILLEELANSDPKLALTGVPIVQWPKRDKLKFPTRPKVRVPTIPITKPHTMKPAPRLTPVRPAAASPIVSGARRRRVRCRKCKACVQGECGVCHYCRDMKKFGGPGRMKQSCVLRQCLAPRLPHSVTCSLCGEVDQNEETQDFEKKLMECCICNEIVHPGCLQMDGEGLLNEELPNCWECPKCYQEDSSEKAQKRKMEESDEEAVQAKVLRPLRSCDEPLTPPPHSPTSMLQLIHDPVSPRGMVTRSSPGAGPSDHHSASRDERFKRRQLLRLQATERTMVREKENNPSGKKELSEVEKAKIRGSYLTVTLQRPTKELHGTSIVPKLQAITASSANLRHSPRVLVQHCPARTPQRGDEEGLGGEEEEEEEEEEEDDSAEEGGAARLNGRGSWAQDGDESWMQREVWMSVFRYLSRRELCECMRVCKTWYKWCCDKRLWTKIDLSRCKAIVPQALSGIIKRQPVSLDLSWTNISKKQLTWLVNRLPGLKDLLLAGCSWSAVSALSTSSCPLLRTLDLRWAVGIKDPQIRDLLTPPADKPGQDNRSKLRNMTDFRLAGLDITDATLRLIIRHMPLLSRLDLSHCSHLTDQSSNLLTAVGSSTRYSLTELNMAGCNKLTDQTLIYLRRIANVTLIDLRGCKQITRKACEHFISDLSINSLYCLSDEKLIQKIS

Chains of the proteins cited; added tags and fusions are not shown.
UniProt P45973: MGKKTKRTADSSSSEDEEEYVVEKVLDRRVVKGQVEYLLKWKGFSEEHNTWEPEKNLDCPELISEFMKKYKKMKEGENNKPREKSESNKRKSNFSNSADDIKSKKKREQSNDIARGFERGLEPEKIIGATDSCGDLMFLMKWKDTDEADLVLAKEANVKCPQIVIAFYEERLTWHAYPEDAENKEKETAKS

[2] = biological target: T2, purified full length FLAG-GFP-tagged KDM2A V801A/L803A (human) (UniProt Q9Y2K7); assay: as above
T2 sequence: T1 sequence with V801A, L803A

[3] = biological target: T3, KDM2A_(543-811) nucleosome recognition module (human) (UniProt Q9Y2K7); assay: pull-down; nucleosomes (2.5 μg octamer, biotinylated 601-DNA) immobilised on streptavidin beads, incubated with 2.5 μg WT or mutant HP1α and/or 2.5 μg KDM2A_(543-811) (WT or V801A/L803A) in 1 ml binding buffer; immunoblot; both purified
T3 sequence: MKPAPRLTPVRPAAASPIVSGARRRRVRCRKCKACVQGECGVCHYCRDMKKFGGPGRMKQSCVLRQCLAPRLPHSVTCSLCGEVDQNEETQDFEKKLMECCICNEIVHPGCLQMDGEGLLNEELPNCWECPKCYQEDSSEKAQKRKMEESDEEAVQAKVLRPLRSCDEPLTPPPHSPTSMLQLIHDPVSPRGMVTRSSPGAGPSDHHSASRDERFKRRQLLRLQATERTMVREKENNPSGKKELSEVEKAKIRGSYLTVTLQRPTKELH

binding [1]: binds | binding [2]: no binding | binding [3]: binds
Substance: recombinant purified HP1α (WT) (from UniProt P45973 1-191)
